B1: TPR 5TU (parent)
chain: GGAUCUUCUCGAUCUAACAAAAAAGACAAAUCUGCCACAAAGCUUGAGAGCAUCUUCGGAUGCAGAGGCGGCAGCCUUCGGUGGCGCGAUAGCGCCAACGUUCUCAACUAUGACACGCAAAACGCGUGCUCCGUUGAAUGGAGUUUAUCAUG

Variants at the background level are over-represented here. A value given as a limit tells only on which side of the number the result lay.

The variants in this series derive from B1. The experiment in a line: polymerase ribozyme fitness, log enrichment relative to wild type (log ratio); higher = more active; in vitro selection for triplet polymerase activity. In short, it runs like this:
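For each subunit of a heterodimeric triplet polymerase ribozyme, a mutant library was built by PCR and transcribed, then taken through a single in vitro selection round in triplicate. Selection involved annealing to a biotinylated primer, the partner subunit and triplets, incubation frozen at −7 °C, gel excision of extended constructs, capture on streptavidin beads and RT-PCR. Genotypes were retained after Illumina sequencing of inputs and outputs only with ≥10 input reads and ≥1 read in each output. Fitness is defined as the logarithm of a genotype's enrichment relative to wild-type enrichment, using inverse-variance-weighted averages across replicates, with the logarithm taken to base 2.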
For the variant G65C C75G U78C U82C G86A G94A A98U C118A A121C, the “polymerase ribozyme fitness (log ratio)” value was not above -4.2.
For the variant G67U G70C G86A C132G, the “polymerase ribozyme fitness (log ratio)” value is not above -4.2.
Turning to G68A C93A C108A G143U, the “polymerase ribozyme fitness (log ratio)” value is not above -4.2.
As for G65A A113G, the figure is -3.91; as for A64C G133C, not above -4.2; as for A66C U90G C93U G94A C96A U144G, not above -4.2.
Then G65A G70C A91C A107U, with not above -4.2.
As for C63A C108G, the figure is not above -4.2; as for A64G G92U C116G C118A A142C C149A, not above -4.2.
Take A66C G94U: the “polymerase ribozyme fitness (log ratio)” value is not above -4.2.
As for G67U C87U, the figure is -3.88; as for G67A C118U G126C, not above -4.2; as for G68A C85G G141U, not above -4.2.
For C63G C85U A115U C116A C149U, the “polymerase ribozyme fitness (log ratio)” value is not above -4.2.
On to A64G C76A C103G C108U C118G, for which the “polymerase ribozyme fitness (log ratio)” value was not above -4.2.
Then G68A U77A U82C G88A U111C U134C, with not above -4.2; and A64G C93G, with -4.05; and G65C U90G A91G, with not above -4.2.
Regarding G67C C79A G86A C96U G124C, the “polymerase ribozyme fitness (log ratio)” value was not above -4.2.
For G62C G92A, the “polymerase ribozyme fitness (log ratio)” value was not above -4.2.
C63U C87A A89C C96U: the “polymerase ribozyme fitness (log ratio)” value was not above -4.2.
Take A66G G70C G88A G128C A137G G140A: the “polymerase ribozyme fitness (log ratio)” value is not above -4.2.
Then G67C U82A G94C G133C A137C G141A A150U, with not above -4.2; and G68A A73U, with not above -4.2; and G68A C76A C95U C125U, with not above -4.2.
As for G65A C76A G136A, the “polymerase ribozyme fitness (log ratio)” value is not above -4.2.
As for G68A C87A C108U C125U, the figure is not above -4.2; as for A66U G84U A107C G117C U148G, not above -4.2; as for G67U G83U, not above -4.2.
As for G67U U109G G124A, the figure is not above -4.2; as for A66G G84A G141C, not above -4.2.
As for A66G C93U A107U A138U U139A, the figure is not above -4.2; as for G68A G83C U90G C118U, not above -4.2.
Consider A64G C85U A120G U146C, for which the “polymerase ribozyme fitness (log ratio)” value was not above -4.2.
Turning to G65U A91G U104A C105U, the “polymerase ribozyme fitness (log ratio)” value is not above -4.2.
A66U G81U C96U: the “polymerase ribozyme fitness (log ratio)” value is not above -4.2.
For G67U G88U G141C A150G, the “polymerase ribozyme fitness (log ratio)” value is not above -4.2.
Then G68A C125A, with not above -4.2; and G68A A107C C125A G126A, with not above -4.2.
As for A66U C87A G100C A142U, the figure is not above -4.2; as for C63U A122U, 0.751; as for C63U A122C, -0.464.
Consider A66U C87A A106C A138U, for which the “polymerase ribozyme fitness (log ratio)” value was not above -4.2.
On to G68A G88A G140A G141C, for which the “polymerase ribozyme fitness (log ratio)” value is not above -4.2.
Then A66U G81A A91U A121U, with not above -4.2.
For the variant G65C A89U A97G, the “polymerase ribozyme fitness (log ratio)” value was not above -4.2.
On to A64C G83C, for which the “polymerase ribozyme fitness (log ratio)” value was not above -4.2.
For G68A U90G C96U A115G, the “polymerase ribozyme fitness (log ratio)” value is not above -4.2.
As to C63U A89G C93A, the “polymerase ribozyme fitness (log ratio)” value is not above -4.2.
In the case of C63G C96G G112U, the “polymerase ribozyme fitness (log ratio)” value is not above -4.2.
Then A66C G68C A122U, with not above -4.2; and A66G C93U C108U C132G C149A, with not above -4.2.
As for A64G A91C G133C, the “polymerase ribozyme fitness (log ratio)” value was not above -4.2.
With A66U U111A U139C, the “polymerase ribozyme fitness (log ratio)” value was not above -4.2.
In the case of G65C G67C G92U G140A U145A, the “polymerase ribozyme fitness (log ratio)” value was not above -4.2.
Consider A66C C87A A106C G136A U146A, for which the “polymerase ribozyme fitness (log ratio)” value is not above -4.2.
G67A C99U A107U G143C: the “polymerase ribozyme fitness (log ratio)” value was not above -4.2.
Turning to A66G C69U, the “polymerase ribozyme fitness (log ratio)” value was not above -4.2.
Then G68A G74C G80A G81A U148G, with not above -4.2; and G67C G71C C76G G83A C87U G88U C123U G141A, with not above -4.2; and A64C C76G G124U G140C U144A, with not above -4.2.
Turning to C63A A89C C95G C114U C118U, the “polymerase ribozyme fitness (log ratio)” value was not above -4.2.
As for C63U C93A C116G A142G, the figure is -3.41; as for G65C G84C C95U C116U G141A, not above -4.2; as for G62C G94A G133C G141U, -3.95.
With G62C G143U, the “polymerase ribozyme fitness (log ratio)” value was -3.58.
With G68A C105U G126A, the “polymerase ribozyme fitness (log ratio)” value is not above -4.2.
Then G62U A89U C116G C132G, with not above -4.2.
For the variant G67A A107G C123U A137C, the “polymerase ribozyme fitness (log ratio)” value was not above -4.2.
Turning to A64C G68C C87A A91G C99A A121C A122C, the “polymerase ribozyme fitness (log ratio)” value is not above -4.2.
As for A64G G86U A107G C116G G143C, the figure is not above -4.2; as for G67U G81A C93G C105U, not above -4.2; as for G67C G94A U139A A142U, not above -4.2.
In the case of G68A G70A A106G, the “polymerase ribozyme fitness (log ratio)” value is not above -4.2.
Then G67C C99U, with not above -4.2; and G65A C76U G83C, with not above -4.2.
As to A64G C72G C87A U90G G143U C149U, the “polymerase ribozyme fitness (log ratio)” value is not above -4.2.
Regarding A66C C103G C108A G117A, the “polymerase ribozyme fitness (log ratio)” value was not above -4.2.
Then G68A C87A A107G G117U C132G, with not above -4.2; and G65U G133C G141U, with not above -4.2; and A66G C69U A91G C105G A120U, with not above -4.2.
As for G68A C76A C85U G128A C129A, the figure is not above -4.2; as for C63U G68A G83C A115C U144C C149A, not above -4.2; as for A66G U90G C93G, not above -4.2.

For the origin of these results see the RNAGym collection of RNA variant scans (doi:10.1073/pnas.2313332121).
